# From patent US20260297081A1, “COMPOUNDS AND METHODS OF TREATING CANCERS” (Cullgen Inc., priority 2023, published 2026)
# At least one read-out could not be matched to a standard name with certainty.
# Test system: CyclinD1 (CCND1)
# Experiment: Cyclin D1 (CCND1) percentage degradation in Calu-1 cells (Table 6)
# Format: cell-based
# Details: 16 hours
SMILES,CyclinD1 Degradation (40 nM),CyclinD1 Degradation (200 nM)
"CNc1ccc(C(=O)Nc2cccc(C3CC3)n2)c(NC2CC(NC(=O)CN3CCN(c4ccc(Nc5ncc6c(C)c(C(C)=O)c(=O)n(C7CCCC7)c6n5)nc4)CC3)C2)n1 (stereo not shown) [CPD-240, 2-((3-(2-(4-(6-((6-acetyl-8-cyclopentyl-5-methyl-7-oxo-7,8-dihydropyrido[2,3-d]pyrimidin-2-yl)amino)pyridin-3-yl)piperazin-1-yl)acetamido)cyclobutyl)amino)-N-(6-cyclopropylpyridin-2-yl)-6-(methylamino)nicotinamide]",B (50%< degradation activity <80%),A (degradation activity >80%)
"[2H]C([2H])([2H])Nc1ccc(C(=O)Nc2ccc(N(C)C)nn2)c(NC2CC3(CC(NC(=O)CN4CCN(c5ccc(Nc6ncc7c(C)c(C(C)=O)c(=O)n(C8CCCC8)c7n6)nc5)CC4)C3)C2)n1 (stereo not shown) [CPD-241, 2-((6-(2-(4-(6-((6-acetyl-8-cyclopentyl-5-methyl-7-oxo-7,8-dihydropyrido[2,3-d]pyrimidin-2-yl)amino)pyridin-3-yl)piperazin-1-yl)acetamido)spiro[3.3]heptan-2-yl)amino)-N-(6-(dimethylamino)pyridazin-3-yl)-6-((methyl-d3)amino)nicotinamide]",A (degradation activity >80%),A (degradation activity >80%)
"CNc1ccc(C(=O)Nc2ccc(N(C)C)nn2)c(NC2CC(NC(=O)C(C)N3CCN(c4ccc(Nc5ncc6c(C)c(C(C)=O)c(=O)n(C7CCCC7)c6n5)nc4)CC3)C2)n1 (stereo not shown) [CPD-242, 2-((3-(2-(4-(6-((6-acetyl-8-cyclopentyl-5-methyl-7-oxo-7,8-dihydropyrido[2,3-d]pyrimidin-2-yl)amino)pyridin-3-yl)piperazin-1-yl)propanamido)cyclobutyl)amino)-N-(6-(dimethylamino)pyridazin-3-yl)-6-(methylamino)nicotinamide]",A (degradation activity >80%),A (degradation activity >80%)
"CNc1ccc(C(=O)Nc2ccc(N(C)C)nn2)c(NC2CC(NC(=O)C(C)(C)N3CCN(c4ccc(Nc5ncc6c(C)c(C(C)=O)c(=O)n(C7CCCC7)c6n5)nc4)CC3)C2)n1 (stereo not shown) [CPD-243, 2-((3-(2-(4-(6-((6-acetyl-8-cyclopentyl-5-methyl-7-oxo-7,8-dihydropyrido[2,3-d]pyrimidin-2-yl)amino)pyridin-3-yl)piperazin-1-yl)-2-methylpropanamido)cyclobutyl)amino)-N-(6-(dimethylamino)pyridazin-3-yl)-6-(methylamino)nicotinamide]",A (degradation activity >80%),A (degradation activity >80%)
"[2H]C([2H])([2H])Nc1ccc(C(=O)Nc2cc(C)n(C)n2)c(NC2CC3(CC(NC(=O)CN4CCN(c5ccc(Nc6ncc7c(C)c(C(C)=O)c(=O)n(C8CCCC8)c7n6)nc5)CC4)C3)C2)n1 (stereo not shown) [CPD-244, 2-((6-(2-(4-(6-((6-acetyl-8-cyclopentyl-5-methyl-7-oxo-7,8-dihydropyrido[2,3-d]pyrimidin-2-yl)amino)pyridin-3-yl)piperazin-1-yl)acetamido)spiro[3.3]heptan-2-yl)amino)-N-(1,5-dimethyl-1H-pyrazol-3-yl)-6-((methyl-d3)amino)nicotinamide]",A (degradation activity >80%),A (degradation activity >80%)
"[2H]C([2H])([2H])Nc1ccc(C(=O)Nc2ccc(N(C)C)nn2)c(NC2CC(NC(=O)CN3CCN(c4ccc(Nc5ncc6c(C)c(C(C)=O)c(=O)n(C7CCCC7)c6n5)nc4)CC3)C2)n1 (stereo not shown) [CPD-245, 2-((3-(2-(4-(6-((6-acetyl-8-cyclopentyl-5-methyl-7-oxo-7,8-dihydropyrido[2,3-d]pyrimidin-2-yl)amino)pyridin-3-yl)piperazin-1-yl)acetamido)cyclobutyl)amino)-N-(6-(dimethylamino)pyridazin-3-yl)-6-((methyl-d3)amino)nicotinamide]",A (degradation activity >80%),A (degradation activity >80%)
"CNc1ccc(C(=O)Nc2ncc(C)o2)c(NC2CC3(CC(NC(=O)CN4CCN(c5ccc(Nc6ncc7c(C)c(C(C)=O)c(=O)n(C8CCCC8)c7n6)nc5)CC4)C3)C2)n1 (stereo not shown) [CPD-246, 2-((6-(2-(4-(6-((6-acetyl-8-cyclopentyl-5-methyl-7-oxo-7,8-dihydropyrido[2,3-d]pyrimidin-2-yl)amino)pyridin-3-yl)piperazin-1-yl)acetamido)spiro[3.3]heptan-2-yl)amino)-6-(methylamino)-N-(5-methyloxazol-2-yl)nicotinamide]",A (degradation activity >80%),A (degradation activity >80%)
"CNc1ccc(C(=O)Nc2nc(C)c(C)o2)c(NC2CC3(CC(NC(=O)CN4CCN(c5ccc(Nc6ncc7c(C)c(C(C)=O)c(=O)n(C8CCCC8)c7n6)nc5)CC4)C3)C2)n1 (stereo not shown) [CPD-247, 2-((6-(2-(4-(6-((6-acetyl-8-cyclopentyl-5-methyl-7-oxo-7,8-dihydropyrido[2,3-d]pyrimidin-2-yl)amino)pyridin-3-yl)piperazin-1-yl)acetamido)spiro[3.3]heptan-2-yl)amino)-N-(4,5-dimethyloxazol-2-yl)-6-(methylamino)nicotinamide]",B (50%< degradation activity <80%),A (degradation activity >80%)
"[2H]C([2H])([2H])Nc1ccc(C(=O)Nc2ccc(N(C)C)nn2)c(NC2CN(C(=O)C(F)(F)CN3CCN(c4ccc(Nc5ncc6c(C)c(C(C)=O)c(=O)n(C7CCCC7)c6n5)nc4)CC3)C2)n1 [CPD-248, 2-((1-(3-(4-(6-((6-acetyl-8-cyclopentyl-5-methyl-7-oxo-7,8-dihydropyrido[2,3-d]pyrimidin-2-yl)amino)pyridin-3-yl)piperazin-1-yl)-2,2-difluoropropanoyl)azetidin-3-yl)amino)-N-(6-(dimethylamino)pyridazin-3-yl)-6-((methyl-d3)amino)nicotinamide]",D (degradation activity <30%),B (50%< degradation activity <80%)
"[2H]C([2H])([2H])Nc1ccc(C(=O)Nc2ccc(N(C)C)nn2)c(NC2CCN(C(=O)CN3CCN(c4ccc(Nc5ncc6c(C)c(C(C)=O)c(=O)n(C7CCCC7)c6n5)nc4)CC3)CC2)n1 [CPD-250, 2-((1-(2-(4-(6-((6-acetyl-8-cyclopentyl-5-methyl-7-oxo-7,8-dihydropyrido[2,3-d]pyrimidin-2-yl)amino)pyridin-3-yl)piperazin-1-yl)acetyl)piperidin-4-yl)amino)-N-(6-(dimethylamino)pyridazin-3-yl)-6-((methyl-d3)amino)nicotinamide]",A (degradation activity >80%),A (degradation activity >80%)
"CC(=O)c1c(C)c2cnc(Nc3ccc(N4CCN(CC(=O)NCCC5CC(Nc6cc(Cl)ccc6C(=O)Nc6ccc(C)c(C7CC7)n6)C5)CC4)cn3)nc2n(C2CCCC2)c1=O (stereo not shown) [CPD-255, 2-((3-(2-(2-(4-(6-((6-Acetyl-8-cyclopentyl-5-methyl-7-oxo-7,8-dihydropyrido[2,3-d]pyrimidin-2-yl)amino)pyridin-3-yl)piperazin-1-yl)acetamido)ethyl)cyclobutyl)amino)-4-chloro-N-(6-cyclopropyl-5-methylpyridin-2-yl)benzamide]",D (degradation activity <30%),A (degradation activity >80%)
